Experimental findings from PMC4336329 (PLoS ONE, 2015) are described below.

The campaign covered roughly 310,000 compounds. About 2,200 (0.71%) showed an effect of 50% or more. The effect is printed as a negative number. Some of the results follow.

Chain of human ether-à-go-go-related gene (hERG) potassium channel (Q12809 whole entry, looked up): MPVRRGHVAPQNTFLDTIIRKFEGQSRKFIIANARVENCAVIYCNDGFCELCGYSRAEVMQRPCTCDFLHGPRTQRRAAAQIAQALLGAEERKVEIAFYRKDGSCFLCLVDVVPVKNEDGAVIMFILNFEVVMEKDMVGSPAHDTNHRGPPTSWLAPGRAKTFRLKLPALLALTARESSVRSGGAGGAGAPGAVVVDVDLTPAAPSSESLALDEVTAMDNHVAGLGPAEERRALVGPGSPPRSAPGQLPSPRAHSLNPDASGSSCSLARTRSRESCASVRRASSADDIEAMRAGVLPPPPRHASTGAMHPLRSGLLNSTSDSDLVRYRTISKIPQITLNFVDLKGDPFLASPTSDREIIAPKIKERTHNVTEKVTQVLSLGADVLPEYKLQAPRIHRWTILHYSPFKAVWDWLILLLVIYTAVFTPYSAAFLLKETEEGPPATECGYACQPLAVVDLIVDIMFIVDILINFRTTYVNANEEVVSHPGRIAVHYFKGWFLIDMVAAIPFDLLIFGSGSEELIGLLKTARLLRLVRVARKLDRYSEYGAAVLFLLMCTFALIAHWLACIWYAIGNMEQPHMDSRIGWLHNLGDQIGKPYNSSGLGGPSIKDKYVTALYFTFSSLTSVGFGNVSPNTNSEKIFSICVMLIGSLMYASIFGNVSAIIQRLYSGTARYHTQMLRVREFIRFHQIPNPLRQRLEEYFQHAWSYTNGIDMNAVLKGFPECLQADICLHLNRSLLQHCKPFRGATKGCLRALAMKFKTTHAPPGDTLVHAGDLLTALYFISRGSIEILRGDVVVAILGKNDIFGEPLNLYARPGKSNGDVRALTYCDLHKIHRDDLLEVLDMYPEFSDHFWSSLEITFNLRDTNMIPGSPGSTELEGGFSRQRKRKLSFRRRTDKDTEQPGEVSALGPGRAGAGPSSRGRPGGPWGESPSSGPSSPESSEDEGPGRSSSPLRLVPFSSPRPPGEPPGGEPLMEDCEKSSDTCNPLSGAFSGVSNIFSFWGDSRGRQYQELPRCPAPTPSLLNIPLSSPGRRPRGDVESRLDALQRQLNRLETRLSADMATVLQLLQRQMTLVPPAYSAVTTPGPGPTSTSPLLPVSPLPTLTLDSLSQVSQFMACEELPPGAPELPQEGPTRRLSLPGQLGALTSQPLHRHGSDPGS

The test addresses human ether-à-go-go-related gene (hERG) potassium channel (human, UniProt Q12809). As to the kind of experiment: primary screen, population patch clamp on CHO cells stably expressing hERG.
On to `CC(C)(C)Nc1nc(Cl)nc(NCc2ccccc2)n1`, for which the “hERG current change (%, negative = inhibition) at 1uM” value turned out to be 7.78%.

Take `O=C(O)CSc1nnc(-c2ccc(Cl)cc2)n1-c1ccccc1`: the “hERG current change (%, negative = inhibition) at 1uM” value worked out at 16.7%. The value for `COCC(=O)N1CCCC(C(=O)c2ccc3c4c(cccc24)CC3)C1` (stereo not shown) was -13.1%; that for `CCn1c(SCc2nc3ccccc3[nH]2)nnc1-c1ccncc1` was 6.85%; that for `Nc1cc(=O)[nH]c(SCC(=O)N2N=C(c3ccc4ccccc4c3)CC2c2ccccc2)n1` (stereo not shown) was 9.51%. For the compound `Cc1nn(C)cc1C(=O)NNC(=S)Nc1ccc(Cl)cc1`, the “hERG current change (%, negative = inhibition) at 1uM” value is recorded as 12.6%. For the compound `CCOC(=O)N1CCN(C(=O)c2ccc(-n3c(C)ccc3C)cc2)CC1`, the “hERG current change (%, negative = inhibition) at 1uM” value stood at 10.8%. With `CCCn1c(SCC(=O)NC2CCCC(C)C2C)n[nH]c1=O` (stereo not shown), the “hERG current change (%, negative = inhibition) at 1uM” value turned out to be 12.4%. The figure for `COc1cc(C)c(NC(=O)C(=S)NCc2ccccc2)cc1C` is 18.3%; for `Cc1c(Cl)cccc1NC(=O)Nn1cnnc1` it is 16.9%.

Consider `CCn1cc(C(=O)NC(=S)Nc2ccccc2Br)cn1`, for which the “hERG current change (%, negative = inhibition) at 1uM” value was 6.3%. Consider `COc1ccc(OC)c(-n2nnnc2SCC(=O)O)c1`, for which the “hERG current change (%, negative = inhibition) at 1uM” value came out at 6.78%. For the compound `O=C(CCCOc1ccc(Cl)cc1Cl)NCc1ccncc1`, the “hERG current change (%, negative = inhibition) at 1uM” value amounted to 3.15%. The value for `COc1cc(NC(=O)CNc2cccc(S(=O)(=O)N3CCCC3)c2)cc(OC)c1` was 9.8%. The figure for `N#CC1(N2CCN(C(=O)c3ccccc3)CC2)CCCCC1` is 19%; for `CC(=O)CCn1cnc([N+](=O)[O-])n1` it is 11%. The figure for `COc1cc(/C=C(/C#N)c2ccccc2)ccc1Oc1ccc([N+](=O)[O-])cn1` is 12%; for `CC(Sc1ccc(Cl)cc1)C(=O)N(C)CC(=O)Nc1ccc(N2CCOCC2)cc1` (stereo not shown) it is -23.1%. On to `O=C(/C=C\Nc1ccccn1)c1ccccc1`, for which the “hERG current change (%, negative = inhibition) at 1uM” value amounted to 2.73%.

On to `C/C(=N\Nc1nc2ccccc2s1)c1ccc(Br)s1`, for which the “hERG current change (%, negative = inhibition) at 1uM” value was 1.19%. As to `O=C(N/N=C/c1ccc2cccc(OCc3ccccc3)c2n1)c1ccc(Br)cc1`, the “hERG current change (%, negative = inhibition) at 1uM” value is listed as 6.09%. The figure for `O=C(O)c1cccc(-n2cc(-c3cccc(C(F)(F)F)c3)cn2)c1` is 4.88%; for `Cc1ccc(-n2cccc2/C=C2\C(=N)N3N=C(c4ccco4)SC3=NC2=O)cc1` it is 0.991%. The figure for `COCCNC(=O)c1ccc(C)cc1C` is 16.8%. The value for `CCOC(=O)C1CCN(C(=O)NC23CC4CC(CC(C4)C2)C3)CC1` was -4.34%. With `Cc1[nH]c2ccccc2c1Cc1nnc(SCCC#N)o1`, the “hERG current change (%, negative = inhibition) at 1uM” value was 10.8%.

Regarding `COCCNC(=O)/C(C#N)=C/C(C)=C/c1ccccc1`, the “hERG current change (%, negative = inhibition) at 1uM” value is reported as 8.29%.

Regarding `Cc1ncc([N+](=O)[O-])n1CCOC(N)=O`, the “hERG current change (%, negative = inhibition) at 1uM” value worked out at 11.3%. In the case of `COc1ccccc1CNC(=O)C1CCC(CNS(=O)(=O)c2cccs2)CC1` (stereo not shown), the “hERG current change (%, negative = inhibition) at 1uM” value was -4.65%.

For `O=C(Nc1ccc2c(c1)OCCO2)N1CCN(c2ccc(F)cc2)CC1`, the “hERG current change (%, negative = inhibition) at 1uM” value was found to be 9.85%.

For `O=C(Cc1ccccc1F)NCC(c1ccco1)N1CCCCC1` (stereo not shown), the “hERG current change (%, negative = inhibition) at 1uM” value was 15.7%. As to `COc1ccc(OC)c(CN2CCCCCC2)c1.O=C(O)C(=O)O`, the “hERG current change (%, negative = inhibition) at 1uM” value was 13.5%. Turning to `CCCCCN(C(=O)CCC(=O)OCC(=O)N1CCCCC1C)c1c(N)n(CCCC)c(=O)[nH]c1=O` (stereo not shown), the “hERG current change (%, negative = inhibition) at 1uM” value was 11.5%. The value for `CCOC(=O)c1ccc(NC(=O)Cn2nnc3ccccc32)cc1` was 2.4%; that for `CSc1nc(-c2ccccc2)cc(C)c1C#N` was -7.47%. The value for `CN(C)c1ccc(/C=N/n2c(-c3ccccc3Br)n[nH]c2=S)cc1` was 13.9%. The value for `CC(=O)c1c(C)[nH]c(C(=O)OCc2cccc(C)c2)c1C` was 12.3%; that for `CC(C)(C)OC(=O)N1CCC[C@H]1c1nnc(SCc2ccccc2)o1` was 4.56%. With `CCn1c(SCC(=O)N2CCOCC2)nnc1C(C)NC(=O)c1ccccc1` (stereo not shown), the “hERG current change (%, negative = inhibition) at 1uM” value worked out at 4.59%. Take `Cn1c(=O)cc(NCCc2ccccc2)[nH]c1=O`: the “hERG current change (%, negative = inhibition) at 1uM” value is recorded as -1.53%. The value for `O=S(=O)(c1cccs1)N1CCN(c2ccc(O)cc2)CC1` was -1.01%; that for `COc1cc(/C=N/NC(=O)CCC(=O)Nc2ccc(C)cc2)ccc1O` was 7.32%. The value for `Br.Cc1ccc(S(=O)(=O)NN2Cc3ccccc3C2=N)cc1` was 7.96%. Take `Cc1ccc2[nH]c(=O)c(C(c3nnnn3CCc3ccccc3)N3CCOCC3)cc2c1` (stereo not shown): the “hERG current change (%, negative = inhibition) at 1uM” value is given as 8.41%. On to `CCCC1=NN(C(=O)Cc2ccc(OC)c(OC)c2)C(O)(C(F)(F)F)C1` (stereo not shown), for which the “hERG current change (%, negative = inhibition) at 1uM” value is listed as 4.64%.

Consider `CCCc1nc2c(sc3nc4c(cc32)COC(C)(C)C4)c(=O)n1CCN(CC)CC`, for which the “hERG current change (%, negative = inhibition) at 1uM” value came to 5.45%. The value for `CCOC(=O)c1ccc(NC(=O)CSc2nnnn2C2CCCCC2)cc1` was 10.5%. As to `CC1=C(C(=O)N2CCCC(N3CCN(c4cccc(Cl)c4)CC3)C2)OCCO1` (stereo not shown), the “hERG current change (%, negative = inhibition) at 1uM” value is 28.6%. The value for `CCOC(=O)C1CCCN(C(=O)c2ccc3c(c2)OCO3)C1` (stereo not shown) was -0.968%; that for `CCOc1cccc2cc(C(=O)NC(C)c3ccccc3)c(=N)oc12` (stereo not shown) was 5.08%. `COc1ccc(N(CC(=O)N/N=C/c2cccc3c2OCCO3)S(=O)(=O)c2ccc(NC(C)=O)cc2)cc1`: the “hERG current change (%, negative = inhibition) at 1uM” value turned out to be 14.1%. For `COc1ccccc1C1(O)CCN(CC(=O)Nc2nc(-c3ccccc3)cs2)CC1`, the “hERG current change (%, negative = inhibition) at 1uM” value is on record as -13.5%.

In the case of `NC(=O)CN1C(=O)C(O)(CC(=O)/C=C\C=C\c2ccccc2)c2ccccc21` (stereo not shown), the “hERG current change (%, negative = inhibition) at 1uM” value is recorded as -0.255%. `Cc1ccc(C)c(NC(=O)COC(=O)c2ccc3c(c2)OCCO3)c1`: the “hERG current change (%, negative = inhibition) at 1uM” value was determined as 12.8%. For the compound `CCCCOc1ccc(C(=O)NCC(=O)N2CCN(C(=O)c3ccco3)CC2)cc1`, the “hERG current change (%, negative = inhibition) at 1uM” value is -10.8%.

Take `Cc1cc(NC(=O)CN2C(=O)N(C)C3(CCCCC3)C2=O)ccc1Br`: the “hERG current change (%, negative = inhibition) at 1uM” value is reported as 10.1%. For the compound `CCOc1ccc(Cc2nc(N)nc(N)n2)cc1`, the “hERG current change (%, negative = inhibition) at 1uM” value is listed as 2.98%. The value for `Cc1ccc(NC(=O)c2cc(-c3cc(C)c(C)cc3O)n[nH]2)cc1C` was -3.43%; that for `CCOC(=O)c1c(C)[nH]c(-c2csc(C)n2)c1C` was 10.7%. The figure for `CCCC(=O)Nc1c(-c2ccccc2)c(=O)c(C)nn1-c1ccc(C)cc1` is 9.23%; for `CCCS(=O)(=O)c1nc(S(=O)(=O)c2ccc(C)cc2)c(N2CCC3(CC2)OCCO3)s1` it is 10.7%. Turning to `Cn1c(CSCCOc2ccccc2)n[nH]c1=S`, the “hERG current change (%, negative = inhibition) at 1uM” value is given as 13.2%. Take `CCCCc1nnc(NC(=O)C(=O)OCC)s1`: the “hERG current change (%, negative = inhibition) at 1uM” value worked out at 21.4%. The value for `COCCNC(=O)c1cccc(OC2CCN(Cc3cccc(C(C)=O)c3)CC2)c1` was 11.3%. The figure for `COc1ccc(CNC(=O)C2CCCN(S(=O)(=O)c3c(C)noc3/C=C/N(C)C)C2)cc1` (stereo not shown) is 12.1%. Take `CC(C)(C)NC(=O)COC(=O)c1ccccc1NC(=O)c1ccco1`: the “hERG current change (%, negative = inhibition) at 1uM” value is recorded as -2.87%. The value for `Cc1c(NC(=O)CSc2ccccc2F)c(=O)n(-c2ccccc2)n1C` was 6.15%. Regarding `Cc1cccc2c1N(C)C(=O)C2=O`, the “hERG current change (%, negative = inhibition) at 1uM” value was 18.6%. The figure for `COc1ccc(S(=O)(=O)NCC2CCC(C(=O)O)CC2)cc1` (stereo not shown) is 13.4%. For the compound `Cc1cc(C)cc(NC(=O)CSc2nc(N)c(NC(=O)c3ccc(Br)o3)c(=O)[nH]2)c1`, the “hERG current change (%, negative = inhibition) at 1uM” value is on record as 12.9%. The value for `Cn1ncc2c(NNC(=O)Cc3ccccc3)ncnc21` was 14.5%; that for `CCc1ccccc1NC(=O)N1CCC(NC(=O)C(Cc2ccc(OC)c(OC)c2)NC(C)=O)CC1` (stereo not shown) was 9.88%. The figure for `COC(=O)C1(NC(=O)NC2CCCCC2)CCCCC1` is 15.8%; for `COC(=O)c1c(NC(=O)COC(=O)CC(NC(C)=O)c2ccccc2)sc(C)c1C` (stereo not shown) it is 15.6%. The figure for `NC(=S)Nc1ncc(CCN2CCOCC2)c(-c2ccc(F)cc2)n1` is -7.43%; for `COC(=O)c1sccc1NC(=O)CC1NCCNC1=O` (stereo not shown) it is 10%; for `Cc1cc(C(=O)N/N=C/c2cc(Br)ccc2OC(=O)c2ccccc2)n[nH]1` it is 6.23%. For `COC(=O)Nc1ccc(S(=O)(=O)N2CCCCC2C(=O)NCc2ccco2)cc1` (stereo not shown), the “hERG current change (%, negative = inhibition) at 1uM” value is recorded as 12.8%. The figure for `CC(=O)Nc1ccc(NC(=O)C2CCCCN2S(=O)(=O)c2ccc(C(C)(C)C)cc2)cc1` (stereo not shown) is 12.8%; for `CCOc1ccc(Br)cc1S(=O)(=O)Nc1ccc(C(=O)Nc2ccc(C)cc2)cc1` it is 4.22%; for `CCCCNc1nc(CC)c2c(c1C#N)CCCC2` it is 13.8%. As to `COc1cc(CCC(=O)Nc2cc(C)cc(C)c2)cc(OC)c1OC`, the “hERG current change (%, negative = inhibition) at 1uM” value amounted to 10.5%.

On to `COc1ccc(OC)c(N2C(=O)CC(Cc3ccc(C)cc3)C2=O)c1` (stereo not shown), for which the “hERG current change (%, negative = inhibition) at 1uM” value is 12%. The value for `COc1ccc(C2CC(c3ccc(C)cc3)Nc3ncnn32)cc1` (stereo not shown) was -7.15%.

On to `O=C(NCc1ccccc1)C1CCCN(c2cnccn2)C1` (stereo not shown), for which the “hERG current change (%, negative = inhibition) at 1uM” value is reported as -4.4%.

As to `O=C(Nc1ccc(Oc2ncnc3cc(Cl)ccc23)nc1)c1ccc(F)cc1`, the “hERG current change (%, negative = inhibition) at 1uM” value worked out at 9.13%. The figure for `COc1cc(C)nc(Oc2ccc(OCCOc3ccccc3)nn2)n1` is 6.89%; for `O=C(COC(=O)CNC(=O)c1ccccc1F)NCCNC(=O)COC(=O)CNC(=O)c1ccccc1F` it is 15.7%; for `Cc1cc(C)n(CC(O)COCc2ccco2)n1` (stereo not shown) it is 0.458%. The figure for `COc1ccc(NC(=O)C(=O)NCCN2CCN(C(=O)c3ccc(C(C)(C)C)cc3)CC2)cc1` is 9.9%. Turning to `O=C(COC(=O)c1ccccc1)Nc1cc(S(=O)(=O)N2CCCCCC2)ccc1Cl`, the “hERG current change (%, negative = inhibition) at 1uM” value is reported as 11.6%.
